Source: PubChem BioAssay AID256 (DTP/NCI, 2004)
Inconclusive results and toxic doses are left out. The source holds more than one record for some entries. Only these are listed. The source may hold further records. Values given together differ for a reason that is not stated; dose, time, organism, isomer or construct need not be as stated for each record.

System: CD2F1 mice, L1210 leukemia ip, survival T/C
Test: NCI In Vivo Anticancer Drug Screen. Data for tumor model L1210 Leukemia (intraperitoneal) in CD2F1 (CDF1) mice
Conditions: endpoint: mean survival time, schedule: Q01DX009 (ip), higher = longer survival
Description: The antitumor activity of compounds was measured in mice bearing transplantable tumors. Survival or tumor size were measured and the results are expressed as the measurement made in the treated group (T) divided by the measurement made in the vehicle treated control group (C). The tumor model used in this assay is L1210 Leukemia (intraperitoneal) in CD2F1 (CDF1) mice

Row | Structure (SMILES) | T/C (dose: 75.0 mg/kg/injection, vehicle: saline with Tween-80) | T/C (dose: 8.0 mg/kg/injection, vehicle: saline)
1 | NC(=S)N/N=C/c1ccc(O)cn1 | 89 % of control, 166 % of control, 179 % of control | 
2 | S=P(N1CC1)(N1CC1)N1CC1 |  | 105 % of control, 118 % of control, 156 % of control
